From the supplement of paper PMC12632987 come the findings set out here.

The full ranking holds about 2,300 sequences; the median of “median log2 fold change of GCK-ALFA target abundance (FLAG IP / Myc IP barcode read proportion)” is about 0.095, and the lowest 2% start at about -0.47. This is one part of the list.

To fix the notation:
B1: LC3A_45_1995 (protein)
chain: MALATIDILVPRELAEEAYELIKEIAKEVEKEYNGKVKVDWEVLEKTYEATKDEEEVLFEVKIYAPNEELALDAADKIVDRLSERLGNRIAAIISVEEVE
B2: LC3A_28_884 (protein)
chain: GKALESAKKALEEVKKAMAAGNKEPLVLEVDAPSEEEEVEEFIKLLDEIAEEASKGRKVTVVIDIDEEVSEENRNKIIDHAEEIEEKYPNVTVIIALPEE
B3: LC3A_28_853 (protein)
chain: SKVEEQIAAARAELEAAAAAGEPVTLVLTVSGDLTEEEIEEFIEGLEELAALAEEHGGHSIIINVEEGVKEEHINEIMDAAERIEEKYPKVTVIIALPEE
B4: LC3A_3_1711 (protein)
chain: GEELIEEAEKILKEKGLSEETKKAVLEALKALLEKGYINAAKELIKLLKEAKDLSDEVILDFAKDVLEYVKTEDVSEEETIKKIKEEYEIAKNEEEIEEL
B5: LC3A_102_135 (protein)
chain: KVEEILERAKERLRERLEEFFEEHPEFSEEEKERALELGEEAIEAAAESAITEEQHGFVDIVAEDKRLEALEELREIHPELAKIAEEAIKELAEEIKKLF
B6: LC3A_28_792 (protein)
chain: MEIEKELKKAKEEAEKALEKGEEVTLTITVTGKTTLEDAKKLVEGLKEIVEKAKDLPRVNIVIDVDGKISPEVLKVLADGGDELEEKYPNVNVVIALDEE
B7: LC3A_28_1278 (protein)
chain: SALDKSLAAAKAEAEQAKANKESAVITIKVPGTATEEDIEKVIKALEEIAEILKDIPNQAIVVDVDGKVPQEHIDKIADKAEEIEEKYPNITVIIALGEE
B8: LC3A_128_229 (protein)
chain: NETREEIKRLLEEAKKILEAAKSEELPKELWEAALKAIEEAIKLVEENAPVEEIKKAIDEAIKKTEELYLYAKSKGLPEATDIAEALILLNQAWLLAQEL
B9: LC3A_3_1860 (protein)
chain: MEAIIARILALLKELGRSEETIAAARALAEALAARGYEAALETLLAELEKLKDVSDEILLAMFEDLLAALATRDLSEEELIALIKEEATVALNEQEIEEL
B10: LC3A_3_1357 (protein)
chain: MDAAIEAMLAELRAAGHSDETIAAAERAARALAARGYEAALETFIALMRELAHLPDELLLALAEDVLRAVEEEDLSEEELIEFIRSEARVARNEAEIEEL
B11: LC3A_16_523 (protein)
chain: AAELQARLDLLTAASNVPEDDLEAFAALLKELAPERAAAIDAALQRPDAALLLHREAAAAARELAERARAAGDEETVTQAELIESDFEVRAALAEVRLEE
B12: LC3A_3_1576 (protein)
chain: SEEFIEEAEKRLREAGLSEKVIEKAREVLELLLEKGWLETAELVVEGLLELKDAPEELLLEALEEVKEVAEDESLSEEEKLERVKEILSTAKSEAEIIEL
B13: LC3A_free_46_2297 (protein)
chain: YIVNIDVDLYGLTKEQAEKFVEELKKELEKIAKEYNVEVKIEVEIEKNEDGTYYVKINITVKAETKEKAEEVKNKIIEEIDKLAEKYGASYIISYEIEEE
B14: LC3A_141_361 (protein)
chain: ATKKETFTLTAKTEEEAIEVAEKIKEKIREFMEKTGAKEVKVTVTITAYNKKTGEVKTETIVETVTPENLDLFEEGLLIELLSYFEKGADEVKVTVTIES
B15: LC3A_28_859 (protein)
chain: SETRESIEKARKELEEAKEKGEPVTIEITVTEDVTEEEVEEVIELIELAAEVSKEVPDVSVIIDFDGEIDQEKLDRILNAAEEAIEKNPKLNVIFALDEK
B16: LC3A_3_1738 (protein)
chain: MEERLEEVRERLEELGFSEEVIEAALELARALLERGFEEAVETLLEKLEELKDLPDEILIAMLEDILRYVRENDLSEEEVIEKIEEEATVARNEAEIEEL
B17: LC3A_59_2019 (protein)
chain: MEEIEEYREKLREAIDNIDEFVEIVREGLEKFKDDKEKVEALLEEVMEVIVEELGADPEEAEKVLKRMKEIFKTEKDKEKAIELVVDEIRDLLLLTPIEE
B18: LC3A_13_347 (protein)
chain: TINITAETPEELLKKSKAALEAHPGQTLNITVTINNEEEAEAVAEAIKEIIDLAIEKGNKLNITLKGKRDLVLYAALLVGSYLFEKNGQIDANVSIEEVE
B19: LC3A_141_358 (protein)
chain: ATQTKTITLEAKTEEEAEKVAEEIGKAIRDFMKATGAETVTLTLTITSYNEKTGETKTRTETLTVTWENLDMVEEGILITILSEFEKGATHITVTATITT
B20: LC3A_45_1919 (protein)
chain: MWEAVVDILVPREDLEKALAVIREVAREIEEETGGAVRFDLEGLDASAEASRDEEEVYLRVTIYAPTRELALDAADRIVERLEEALGRKVAAAISYRELP
B21: LC3A_141_360 (protein)
chain: ETKTETWTFTATTFEEAEKVAKEIGEKIRKFMKETGAKEVTVTITITSYNKKTGETKTETHTDTVTPENLDLFEEGVLIDLLSQFENGADEVKVTVTMES
B22: LC3A_3_1512 (protein)
chain: MEEFIKELKELLESFGASEEVIELAVENLKLLLERGYEEAAKTFFELIKEMKDLSNEDLLEFNKEVLELLKSTDLSEEEIIEKIKEIAKTTKNASEIEEL
B23: LC3A_127_197 (protein)
chain: EEEKLLEEAIKLAEKLSEELQKEDYDLEKLKELAEKLLEVLKKLVELNPRFEPLLKDAEQILELLEKMEELNEAEQEELREHLLMLVEGVIIELLSLSLE
B24: LC3A_28_1172 (protein)
chain: SAIEKNVEEALARAEEARKKKEPTVITIKVPDGATQEEIDLVIEAMERIAELLKDIKGAAIVIDVGGGVKQEHIDLLMEKADEIEKKYPNVNVIIALDED
B25: LC3A_147_402 (protein)
chain: PKLVATIDVLGEKSKELAIESAKALAEELKAKGAEVELEIEEEELEPGEVYVRITITVKTETEELLKEAEALILDRYDKLSEEIAALGGASILSIDRVEE
B26: LC3A_free_39_2179 (protein)
chain: SEEEEEEVEEEILELAEEVGEEAKEIAEEILELVEGNLELKKLILEGLKKLKEEGGDVLEALKRILEIVKEGLKEGLSWEEIKKRIKEELEDFLNLIPLD
B27: LC3A_28_742 (protein)
chain: SALDEQLAAALAEAKAAAAAGEPQVITITVSGTANQEDIDKVIAALEEIAAILKDVKDQAIIVDVDGKLDQDLLTKLADAAEAIEKKYPNVTVIIALDEE
B28: LC3A_free_46_2295 (protein)
chain: YIVEIDVYLDGLTEEQAKEFVEELKKRLEEIAKKYGVEIKIDVKIEKNEDGTYFVEIDITIKAPTKELAEKVKNEVIDVIDELAEKYGASYIISYEIEEA
B29: LC3A_3_1348 (protein)
chain: SEELIEKQVERLREAGFSEEVIEAARRLLELLAKKGHEKAMERVVEVLLKHKDAPEEKIIEALNNAARELEENPNATEEEVEELIKLLENDLEIEPIEEE

In the assay the target is MAP1LC3A, Q9H492. Description: median log2 fold change of GCK-ALFA target abundance (FLAG IP / Myc IP barcode read proportion) (log2 ratio); each designed protein is fused to an ALFA-tag nanobody in HEK293 cells to bring the named protein to FLAG-tagged glucokinase (GCK); Myc marks an untargeted standard; higher = target protein stabilised (more abundant). Conditions: target protein: 3xFLAG-MCP-GCK-ALFA reporter; HEK293 landing pad (RPLP). In outline: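 An ALFA-nanobody-fused binder library was recombined into HEK293 landing-pad cells and induced with 2 μg mL^−1 doxycycline. Cells were transfected with a plasmid expressing a FLAG-tagged target and a Myc-tagged standard. After 48 h, lysates underwent anti-FLAG and anti-Myc immunoprecipitation, and circular RNA barcodes were reverse transcribed, amplified and sequenced. Target abundance is the per-binder median log2 ratio of FLAG to Myc barcode read proportions. Barcodes needed ≥10^−7 proportion in both replicates, binders ≥3 barcodes per replicate, and a 10^−6 pseudocount was added; the two replicates were pooled.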
As for B1, the “median log2 fold change” value was -0.0958. As to B2, the “median log2 fold change” value is -0.247. Under B3 stands 0.185; under B4, -0.0281. Regarding B5, the “median log2 fold change” value is -0.224. Under B6 stands 0.428; under B7, -0.00815.

B8: the “median log2 fold change” value is -0.0692. To B9 belongs 0.346; to B10, 0.232; to B11, 0.256. B12: the “median log2 fold change” value worked out at 0.249. To B13 belongs 0.126; to B14, -0.0634. To B15 belongs 0.187; to B16, 0.2.

For the molecule B17, the “median log2 fold change” value is -0.514.

On to B18, for which the “median log2 fold change” value is -0.0255. On to B19, for which the “median log2 fold change” value turned out to be 0.25.

Turning to B20, the “median log2 fold change” value worked out at 0.142. With B21, the “median log2 fold change” value was found to be 0.363. To B22 belongs 0.354; to B23, 0.142; to B24, 0.121. To B25 belongs 0.127. For B26, the “median log2 fold change” value stood at 0.159. To B27 belongs 0.197. To B28 belongs 0.036. To B29 belongs 0.271.
